The results in this text go back to paper PMC4336329 (PLoS ONE, 2015).

SMILES strings stand for the structures. Hit rate of the full screen: of about 310,000 compounds, about 14,000 (4.5%) showed an effect of 50% or more. Effects have a minus sign here. Some of the results follow.
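Note: peak tail current of the secondary pulse compared with the same well before compound.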

This assay deals with human ether-à-go-go-related gene (hERG) potassium channel (human, UniProt Q12809). Nature of the assay: primary screen, population patch clamp on CHO cells stably expressing hERG.
human ether-à-go-go-related gene (hERG) potassium channel, sequence (Q12809 whole entry, looked up): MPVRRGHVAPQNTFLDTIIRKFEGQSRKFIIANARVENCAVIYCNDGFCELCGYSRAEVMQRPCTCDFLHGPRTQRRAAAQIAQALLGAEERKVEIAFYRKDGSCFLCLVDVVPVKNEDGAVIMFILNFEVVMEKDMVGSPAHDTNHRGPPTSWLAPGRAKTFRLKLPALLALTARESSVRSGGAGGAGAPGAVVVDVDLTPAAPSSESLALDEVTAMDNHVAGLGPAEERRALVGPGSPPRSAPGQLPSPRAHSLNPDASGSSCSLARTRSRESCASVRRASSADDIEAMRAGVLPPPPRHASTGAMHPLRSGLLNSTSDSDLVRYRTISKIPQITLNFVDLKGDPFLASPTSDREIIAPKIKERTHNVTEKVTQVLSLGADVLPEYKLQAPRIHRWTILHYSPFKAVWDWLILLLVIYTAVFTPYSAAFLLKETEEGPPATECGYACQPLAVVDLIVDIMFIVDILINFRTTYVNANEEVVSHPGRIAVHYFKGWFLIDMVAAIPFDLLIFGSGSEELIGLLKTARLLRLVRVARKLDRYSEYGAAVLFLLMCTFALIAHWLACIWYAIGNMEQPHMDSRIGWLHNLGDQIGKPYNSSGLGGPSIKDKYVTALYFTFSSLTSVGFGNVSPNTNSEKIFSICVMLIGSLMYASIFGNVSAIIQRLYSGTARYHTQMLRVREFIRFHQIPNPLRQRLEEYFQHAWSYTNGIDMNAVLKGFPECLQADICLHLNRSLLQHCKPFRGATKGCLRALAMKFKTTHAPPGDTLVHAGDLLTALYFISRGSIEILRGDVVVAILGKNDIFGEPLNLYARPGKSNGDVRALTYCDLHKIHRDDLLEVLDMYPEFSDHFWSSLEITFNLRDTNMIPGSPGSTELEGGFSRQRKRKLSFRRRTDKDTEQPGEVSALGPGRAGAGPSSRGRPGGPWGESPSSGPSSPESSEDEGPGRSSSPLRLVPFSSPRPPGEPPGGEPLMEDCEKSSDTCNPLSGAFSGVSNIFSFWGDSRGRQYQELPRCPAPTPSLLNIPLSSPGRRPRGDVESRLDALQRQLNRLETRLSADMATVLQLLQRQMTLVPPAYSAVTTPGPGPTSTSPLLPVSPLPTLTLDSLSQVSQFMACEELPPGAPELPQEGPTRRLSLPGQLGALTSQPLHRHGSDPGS
For the molecule `CCCN1C2CCCC1CC(NC(C)=O)C2` (centres unmarked), the “hERG current change (%, negative = inhibition) at 10uM” value turned out to be 18%.
For `Cn1c(CCC(=O)OCC(=O)Nc2ccc(Oc3ccccc3)cc2)nc(=O)c2ccccc21` the value was -53.3%; for `O=C(NC(Cc1ccccc1)C(=O)N1CCCC(C(F)(F)F)C1)c1ccccc1` (centres unmarked), -21.7%; for `O=C1[C@@H]2CSCN2C(=O)CN1CCc1cccc(F)c1`, -20.9%.
With `CCCCCN(C(=O)CCC(=O)OCCOc1ccccc1Cl)c1c(N)n(CCCC)c(=O)[nH]c1=O`, the “hERG current change (%, negative = inhibition) at 10uM” value is -41.3%.
In the case of `O=C(O)C1CCN(S(=O)(=O)c2ccc(Oc3ccccc3)cc2)CC1` it was 17.8%.
Regarding `CCNC(=S)N1CCN(S(=O)(=O)c2ccccc2C(F)(F)F)CC1`, the “hERG current change (%, negative = inhibition) at 10uM” value is -9.38%.
For `Cc1ccc(NC(=S)N2CCC(NC(=O)C3CCCCC3)CC2)cc1C`, the “hERG current change (%, negative = inhibition) at 10uM” value is reported as 11.5%.
Regarding `Cc1ccc(C)c(S(=O)(=O)n2cnc3ccccc32)c1`, the “hERG current change (%, negative = inhibition) at 10uM” value is 8.17%.
Consider `COC(=O)c1ccc2nc(C)c(C)nc2c1`, for which the “hERG current change (%, negative = inhibition) at 10uM” value is recorded as 15.8%.
For `CCN(CC)C(=O)N1CCN(C(=O)c2ccc(C)cn2)CC1`, the “hERG current change (%, negative = inhibition) at 10uM” value is given as 14%.
As for `CCOCCCNC(=O)CCS(=O)(=O)Cc1ccc(C)cc1`, the “hERG current change (%, negative = inhibition) at 10uM” value was -7.5%.
For `CC(C)(C)OC(=O)NC(CCCCNC=O)C(=O)O` (centres unmarked) the value was 2.93%; for `O=C(O)CCCCCNC(=O)c1ccc(Br)cc1`, 8.41%.
Consider `COc1ccc(Nc2ncnc3sc(-c4ccccc4)cc23)cc1OC`, for which the “hERG current change (%, negative = inhibition) at 10uM” value was -1.28%.
`CC(=O)N(C1=NCCCS1)c1ccc(F)cc1`: the “hERG current change (%, negative = inhibition) at 10uM” value was -16.7%.
For `O=C(Nc1cccc(Cl)c1)c1cc(-c2ccco2)on1`, the “hERG current change (%, negative = inhibition) at 10uM” value turned out to be 4.82%.
As to `COc1cc(CC(=O)OCC(=O)NC2CCCCC2)cc(OC)c1OC`, the “hERG current change (%, negative = inhibition) at 10uM” value worked out at 6.66%.
In the case of `O=C(/C=C/c1cc2ccccc2o1)c1ccccc1O`, the “hERG current change (%, negative = inhibition) at 10uM” value is recorded as 20.9%.
`COc1ccc(OCCCn2ccnc2)cc1.Cl`: the “hERG current change (%, negative = inhibition) at 10uM” value is reported as 34.4%.
In the case of `COc1ccc(N2CCN(C(=O)c3cccc(F)c3)CC2)c([N+](=O)[O-])c1`, the “hERG current change (%, negative = inhibition) at 10uM” value is listed as -73.2%.
Turning to `COC(=O)C1=C2c3[nH]c4ccccc4c3CCN2C(=O)CC1`, the “hERG current change (%, negative = inhibition) at 10uM” value was -23.1%.
In the case of `CCOc1ccc(NC(=O)NCCN2CCN(c3cccc(C)c3C)CC2)cc1`, the “hERG current change (%, negative = inhibition) at 10uM” value is on record as -24.3%.
In the case of `COc1cc(C(=O)NC2CC3CCCC(C2)N3C2CC2)cc(OC)c1OC` (centres unmarked), the “hERG current change (%, negative = inhibition) at 10uM” value is listed as 29.4%.
Take `O=Cc1c(F)cccc1N1CCCC1`: the “hERG current change (%, negative = inhibition) at 10uM” value was determined as 13.5%.
`Cc1ccc(S(=O)(=O)N2CCCCC2)cc1NC(=O)COC(=O)C1=COCCO1`: the “hERG current change (%, negative = inhibition) at 10uM” value stood at 7.79%.
As to `Cc1ccc(NC(=O)CCC(=O)NNC(=O)NC2CCCCC2)c(C)c1`, the “hERG current change (%, negative = inhibition) at 10uM” value was 1.46%.
For `CCOC(=O)C[C@H]1c2cc(F)ccc2S(=O)(=O)N1Cc1ccc(OC)cc1` the value was -11.1%; for `O=C(CSC1CC(=O)N(CCc2ccccc2)C1=O)Nc1ccc(Cl)cc1` (centres unmarked), -8.55%.
`O=C(c1cc(COc2c(F)cccc2F)on1)N1CCc2ccccc2C1`: the “hERG current change (%, negative = inhibition) at 10uM” value was -10.7%.
As to `CCC1(c2ccccc2)NC(=O)N(CC(=O)Nc2cc(S(=O)(=O)N3CCCCC3)ccc2OC(C)C)C1=O` (centres unmarked), the “hERG current change (%, negative = inhibition) at 10uM” value is recorded as -5.02%.
Turning to `COc1ccccc1NC(=O)c1c(C)nn(-c2ccccc2)c1Cl`, the “hERG current change (%, negative = inhibition) at 10uM” value amounted to 3.6%.
`O=C(NCCS(=O)(=O)NCCCc1ccccc1)c1ccccc1`: the “hERG current change (%, negative = inhibition) at 10uM” value is 5.62%.
In the case of `CCCCN1Cc2c(nc3cc(-c4ccco4)[nH]n3c2=O)C1=O` it was 3.54%; in that of `Cc1cc(C(=O)N/N=C/C(Cl)=C/c2ccccc2)c(C)o1`, 24.7%.
Turning to `O=C(NC(=S)Nc1ccccn1)c1cccc([N+](=O)[O-])c1`, the “hERG current change (%, negative = inhibition) at 10uM” value is recorded as -12.8%.
With `CCOC(=O)c1cnc2ccc(OC)cc2c1Nc1ccc2c(c1)OCCO2`, the “hERG current change (%, negative = inhibition) at 10uM” value was found to be 1.43%.
As to `O=C(Nc1ccnn1C1CCN(C(=O)CCc2ccc(F)cc2)CC1)C1CCOC1` (centres unmarked), the “hERG current change (%, negative = inhibition) at 10uM” value is -20.8%.
As for `COc1ccc(CN(Cc2ccc(OC)cc2)C(=O)c2cccs2)cc1`, the “hERG current change (%, negative = inhibition) at 10uM” value is -15.8%.
With `CC(=O)c1sc2nc(C)c3c(c2c1N)CCCC3`, the “hERG current change (%, negative = inhibition) at 10uM” value is -2.21%.
For `CCSc1nnc(NC(=O)NC2CCCCC2)s1` the value was 0.633%.
In the case of `O=C(NCCCN1CCCC1=O)Nc1ccc(F)c(Cl)c1` it was -1.92%.
As for `Oc1ccc(N=Nc2n[nH]c(-c3ccc(Br)cc3)n2)cc1`, the “hERG current change (%, negative = inhibition) at 10uM” value is 1.41%.
In the case of `O=C(CC(c1ccccc1)c1ccccc1O)NCc1ccccc1` (centres unmarked) it was 1.01%.
With `O=C(COc1ccc(Cl)cc1)NCc1nnc(SCC(=O)NC2CCCC2)o1`, the “hERG current change (%, negative = inhibition) at 10uM” value is -21.8%.
For `O=C(c1ccccc1F)N1CCN(c2ccc([N+](=O)[O-])cc2-n2cccc2)CC1`, the “hERG current change (%, negative = inhibition) at 10uM” value was -23.1%.
Turning to `COc1ccc(S(=O)(=O)NCC2CCCN(CC(C)(C)C)C2)cc1` (centres unmarked), the “hERG current change (%, negative = inhibition) at 10uM” value stood at 14.9%.
Turning to `CCc1ncc(/C=C2\C(=O)Nc3ccccc32)[nH]1`, the “hERG current change (%, negative = inhibition) at 10uM” value turned out to be 4.82%.
For `CC1(C)Cc2nc3oc4c(=S)nc[nH]c4c3cc2CO1` the value was 13.7%.
Consider `Cc1ccc(NC(=O)c2cnc(SCC(=O)NCC3CCCO3)n(C)c2=O)cc1` (centres unmarked), for which the “hERG current change (%, negative = inhibition) at 10uM” value was -39.6%.
In the case of `O=c1cc(N2CCCC2)[nH]c(=O)n1-c1ccc(Cl)cc1` it was -6.02%.
For `CC(NC(=O)c1ccccc1)C(=O)OCC(=O)c1c(N)n(C)c(=O)n(C)c1=O` (centres unmarked), the “hERG current change (%, negative = inhibition) at 10uM” value is -14.1%.
As for `CC(NC(=O)c1cc(COc2cccc(C(F)(F)F)c2)on1)c1nccs1` (centres unmarked), the “hERG current change (%, negative = inhibition) at 10uM” value was -30.4%.
As for `Cc1cccc(-c2ncc(CN3CCN(C4CCCC4)C(CCO)C3)cn2)c1` (centres unmarked), the “hERG current change (%, negative = inhibition) at 10uM” value is given as -46.7%.
With `Br.c1ccc(-c2nc(CSc3nnnn3-c3ccccc3)cs2)cc1`, the “hERG current change (%, negative = inhibition) at 10uM” value stood at 4.24%.
On to `COc1ccc(CCN2CC(C(=O)N(C)CCn3nc(C)cc3C)CCC2=O)cc1` (centres unmarked), for which the “hERG current change (%, negative = inhibition) at 10uM” value is on record as 8.4%.
As to `CC(CC(=O)Nc1ccc(F)c([N+](=O)[O-])c1)c1ccccc1` (centres unmarked), the “hERG current change (%, negative = inhibition) at 10uM” value is -9.38%.
On to `CC(C)c1c(O)cc(-c2ccncc2)n(-c2ccc(Cl)cc2)c1=O`, for which the “hERG current change (%, negative = inhibition) at 10uM” value is listed as -24.7%.
For `Cc1noc(C)c1C(=O)OCC(=O)c1cc(C)n(Cc2ccccc2Cl)c1C` the value was -7.65%.
